Patent EP0179751B1, “Ionophore polyether, process for its preparation and its use” (SANOFI, priority 1984, dated 1986)

System: flore ruménale
Assay: in vitro rumen flora fermentation, nitrogen use

In the case of COC1CC(CC(O)CCC(C)C=C(C)C(=O)O)OC2(OC(C)(C3CCC(C)(C4OC(C5OC(O)(CO)C(C)CC5C)CC4C)O3)CC2C)C1C (centres unmarked) [abiérixine], the “effets sur l'activité microbienne ou sur la production de gaz à partir d'azote protéique” value is reported as “absence d'effets négatifs” and the “quantité d'azote ammoniacal fixée par les bactéries (synthèse microbienne)” value is reported as “ne diminue pas significativement”.
